Laboratory results reported in the supplement of paper PMC10433866.

What was measured:
Test in all cases: growth relative to the no-drug well (fraction of no-drug control); higher = more growth, less inhibition; Broth microdilution in YPAD with 1% dextrose at 30 °C; OD600 at 24 h as a fraction of the no-drug well, three assays.
[1] = system: Candida lusitaniae isolate 1 (coding changes: none)
[2] = system: Candida lusitaniae isolate 10 (coding changes: none)
[3] = system: Candida lusitaniae isolate 13 (coding changes: RLM1 N181K)
[4] = system: Candida lusitaniae isolate 16 (coding changes: EPL1 D340Y)
[5] = system: Candida lusitaniae isolate 17 (coding changes: none)
[6] = system: Candida lusitaniae isolate 20 (coding changes: FKS1 L1355S)
[7] = system: Candida lusitaniae isolate 4 (coding changes: ERG3 Q308K)
[8] = system: Candida lusitaniae isolate 6 (coding changes: none)
[9] = system: Candida lusitaniae isolate 7 (coding changes: RLM1 N181K)
[10] = system: Candida lusitaniae isolate 9 (coding changes: none)

CCCCCOc1ccc(-c2cc(-c3ccc(C(=O)N[C@H]4C[C@@H](O)[C@@H](O)NC(=O)[C@@H]5[C@@H](O)[C@@H](C)CN5C(=O)[C@H]([C@H](O)CC(N)=O)NC(=O)[C@H]([C@H](O)[C@@H](O)c5ccc(O)c(OS(=O)(=O)O)c5)NC(=O)[C@@H]5C[C@@H](O)CN5C(=O)[C@H]([C@@H](C)O)NC4=O)cc3)no2)cc1 [micafungin]
growth
Details	[1]	[2]	[3]	[4]	[5]	[6]	[7]	[8]	[9]	[10]
0.016 µg/mL	0.00435	0.00637	0.00282	0.00257	0.00465	0.592	0.842	0.00522	0.00479	0.0033
0.031 µg/mL	0.00224	0.00427	0.0028	0.0026	0.00569	0.195	0.935	0.00579	0.00322	0.00484
0.063 µg/mL	0.00145	0.00221	0.00173	0.00207	0.00636	0.0565	1.03	0.00615	0.00219	0.00345
0.125 µg/mL	0.00092	0.00081	0.000399	0.0044	0.00332	0.0124	0.658	0.00224	0.00141	0.00269
0.25 µg/mL	0.00277	0.00416	0.00227	0.00182	0.00552	0.000226	0.106	0.00505	0.00194	0.00312
0.5 µg/mL	0.00251	0.00489	0.000126	0.00617	0.00045	0.00659	0.0251	0.00405	0.000909	0.00439
1 µg/mL	0.00328	0.00421	0.00199	0.000747	0.00156	-9.05e-05	0.0102	0.00425	0.00193	0.00469
2 µg/mL	0.00356	0.00356	0.00254	0.00233	0.00045	0.00276	0.00474	0.00179	0.000357	0.00345
4 µg/mL	0.000932	0.00287	0.00226	0.00155	0.000882	0.00314	0.00635	0.00256	0.00141	0.00172
8 µg/mL	0.000932	0.00287	0.00226	0.00155	0.000882	0.00314	0.00354	0.00256	0.00141	0.00281

OC(Cn1cncn1)(Cn1cncn1)c1ccc(F)cc1F [fluconazole]
growth
Details	[1]	[2]	[3]	[4]	[5]	[6]	[7]	[8]	[9]	[10]
0.5 µg/mL	0.0632	0.049	0.0644	0.0673	0.224	0.0591	0.629	0.066	0.378	0.0512
1 µg/mL	0.0516	0.043	0.0401	0.0464	0.174	0.0488	0.535	0.0471	0.0546	0.0399
2 µg/mL	0.054	0.0457	0.0392	0.0493	0.142	0.0392	0.355	0.0519	0.0487	0.0392
4 µg/mL	0.0482	0.0406	0.041	0.0501	0.12	0.0309	0.342	0.0437	0.0435	0.0389
8 µg/mL	0.0496	0.0296	0.0341	0.0399	0.106	0.0314	0.325	0.0441	0.0444	0.0276
16 µg/mL	0.0492	0.0235	0.0291	0.0454	0.105	0.0288	0.27	0.0426	0.0432	0.0229
32 µg/mL	0.0359	0.0355	0.023	0.0322	0.0864	0.0304	0.294	0.0455	0.0426	0.0253
64 µg/mL	0.0407	0.0314	0.036	0.0425	0.091	0.0259	0.26	0.0421	0.0408	0.0236
128 µg/mL	0.0265	0.0222	0.0214	0.0303	0.106	0.0231	0.218	0.0342	0.0328	0.019
256 µg/mL	0.0126	0.00872	0.0117	0.0135	0.0697	0.0109	0.132	0.0178	0.0134	0.0111

Growth of 20 clonally related Candida (Clavispora) lusitaniae isolates in two-fold drug steps (micafungin 0.016-8, fluconazole 0.5-256 µg/mL; YPAD, 30 °C, 24 h), OD600 as a fraction of the no-drug well; lower = more inhibition. The paper reads the MIC at the lowest dose that inhibits growth by half or more; no call per well. Isolates are numbered anew; coding changes are against their shared background.
